# According to the supplement of paper PMC10681739:
# Over roughly 4,100 sequences, “arbitrary fluorescence units” has its median near 780; the highest 2% begin near 22,000. This is one part of the list.
# Target: T1, ETS1 (UniProt P14921)
# T1 sequence: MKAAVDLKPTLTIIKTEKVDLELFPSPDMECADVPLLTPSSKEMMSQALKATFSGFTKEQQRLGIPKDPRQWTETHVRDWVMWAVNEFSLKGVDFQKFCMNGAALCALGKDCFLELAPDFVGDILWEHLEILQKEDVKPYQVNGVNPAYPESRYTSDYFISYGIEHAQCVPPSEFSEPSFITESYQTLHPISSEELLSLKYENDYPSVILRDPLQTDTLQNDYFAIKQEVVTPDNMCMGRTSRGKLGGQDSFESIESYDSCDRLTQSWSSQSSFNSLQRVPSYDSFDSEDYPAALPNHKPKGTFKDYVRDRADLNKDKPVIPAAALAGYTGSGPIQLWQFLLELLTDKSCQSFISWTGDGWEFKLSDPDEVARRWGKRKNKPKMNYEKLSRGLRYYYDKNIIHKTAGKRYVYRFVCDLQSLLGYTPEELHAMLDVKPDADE
# Test: ETS1 binding intensity (PBM fluorescence), ETS1 alone (arbitrary fluorescence units); higher = stronger binding
# Settings: ETS1 concentration 1 nM; RUNX1 concentration 0 nM
# How it was run: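 Full-length recombinant human ETS1 (1 nM, no RUNX1) was incubated, per standard PBM protocols, on double-stranded Agilent 4 × 180k arrays of 36-bp genomic probes whose RUNX1 partner site was mutated. Bound ETS1 was detected with anti-ETS1 antibody (Cell Signaling Technology 14069) and Alexa488-conjugated secondary antibody, then scanned on a GenePix 4400A. Binding level is spot fluorescence intensity, summarised over replicate spots (four printed per sequence) and not normalised.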
row,Sequence,ETS1 binding intensity
1,GAGTCTTCCTTCCGCGGCCCGGGCGCAGTTCTGGCT,1340
2,TCAAAACCTGAGCACAGTATTTCCTGTAGTTTCTAT,2530
3,TGATTAGGAAACTACAGACTACCCGGAAATCAACTT,914
4,TGGTGCACCAGACACACGAGATAAAACAGGAAGCCT,526
5,AGAATTACCAGGAAGCCGAGCGCTGCAGGCTAGCGG,523
6,GACAAAGACCCCAAAAAGATCCTTGAACGGAAAGCC,429
7,TCATATCCGGCAGGAATGGGTTTTGTAGCTTTGTGC,18000
8,ATGTCAGTAACCCCAAACGAGCCACAGGATAAGAAC,431
9,AGAGTCTTTTTTCCTGAGCGTTTGCGATTTTGACTT,368
10,TGTGAAGGAAGCCATGGTTTCATGTCTACGGCTCAG,492
11,GAGGCCGGAGAAAGGCCTGAGATGCAGGAAGCAGCT,408
12,TATGTGGAGTAATCGCCTTCAGTTTCCTGGTTCTGA,579
13,TGGGCCGGGGAGGAAGGCGGCTCGCTGTTCCTCCAC,334
14,GGTGAGCGGAGGTAGTTTATTCTTCCGTGGAGTTAA,476
15,TAAGTGAATTTCCTGCCCGCCTCCGCCTACAGCGTA,8920
16,TCAGCGGGCGCTGAAAGCCCACGACCAGCGGAACGC,306
17,CGGCAGCTGCACCGAAGGGACATCTTCCGCGAGAGC,381
18,CCGCTGAGGGAACTGGAACCTCCCTCACAGGAAGGG,380
19,CCGCCAACCCCAGGGCCGCGACACGGACGGGAAGCA,369
20,GAACACGGAAACACTGAGCTTTTACTTTGACAACAC,617
21,GCCTCCATCCGGAGACCAGAAAGCCTGCAGGCAAGG,3900

row,Sequence,ETS1 binding intensity
1,TGGAGTGGAGGAAGTGGTGTTATCACAGCTCAGAGG,1240
2,TAACTACTTCCTTTTACTATCTACGACAATTTAATT,9440
3,GTCTTAAGCAAAGCTACACTTACTTCCTAAGCTGTT,512
4,GCCGCCGTAGTCGCGGCCGGTCCCCCGGAACCGTCT,300
5,CAGGCCGCTCGCCGCGCACTTCCCCTACCCTTGAGG,467
6,TCACAAACCTACACGGCCCAGCCCCCAGTTCCGTTC,359
7,GCTCTGTGATTAGCAGGTGCAACCCACGCGGAAGGG,329
8,CCTGCTCTGGGGCGCTTAGCAACTTCCTGCCCTGGC,2560
9,AGCCGCCACTTCCTGTCTCTGAGGGTGCATGCTCTT,36000
10,TTGGGATTGTACCAGACAAAGCACTTCCTGCACTGC,1720
11,AACTGGGCGGAAAGAACGGCTAAGCGCAAGCTGCCG,545
12,ACAGACAGCATCCTGAGCTCGTGCTTAGAACACCCT,1300
13,GCAAGATCGCGCATTAACATCTCGGAAACGGACAGC,428
14,TGGTTCATGAGGGTGCACACAGGAAATGAGAGAACG,3750
15,GCGAGAGGGAGGAAGTGACTCACCAACCCCAACAAA,2690
16,AGATGGTGTGGCCGGATGGGGACCAGATTGAAGAGA,1050
17,ACGGTAATAATCACACACACTTCCTCTTAATCAGTG,1730
18,CTCCGCGCAGCCCCAGAGACCCTTGGGAAGTGTGGT,320
19,CCGGGACTGCGTACTCGTCCTTCTTTCCCGTTAGTC,419
20,TCCCTCCTCCGCTCAGACCCACTTCCTGTCTGCTTC,8330
21,AAGGTCGCTGAGGGGATGGGGGCCGGAAATCTCCTC,1910

row,Sequence,ETS1 binding intensity
1,GGCCCGGCCGGAAGAAGCCACCTCCCCCGCGCGCGT,3440
2,TTGGAGGCGGAAACAGGCACCGAAAGCGGAGGAAGG,2190
3,GCCCAGGCAGGAAGCCAGGCGCTCACAGGTTGGCAG,1930
4,GTGTGGTGCTGGGGTGCAGCCCCAGGAAACACGTGC,434
5,CAAGGGAGGGGGGTTACTAGGAAGTGAAAGGCGGAG,1340
6,ACTACATTTCCCAGACAGCCTCGCGGCGGCCCGGGC,370
7,TCCGAGGCCTGCAGGAACGCCAGGAAGCCTAGGCCG,372
8,GAGTGGGCGCTAACTCGCAGGCCGGACGTGACGCAA,659
9,CCGAGGATTTTGGGAGATGTAGTTTTTCCGGCGCCT,393
10,AATCCACTTCCCCGGGTTTTGGGAGGGGGCCCCAGC,1080
11,GCCACTTCCGGTCACTCCCCTCAGCGGCCTCGCGCT,39600
12,GGCTCAAAATCACAGAGAAGCTTCCTATAGTGGGAT,413
13,GCCAGGAAGCCAAGGTCGCGCCCTCCACCTCAGGTC,441
14,CCACTCCAGGAAACTCCTCCAGGTGAGCCCAGAACT,828
15,CCACCGTGCTGTAAACTGCACTTCCTCACTTAGCAC,870
16,CACTTCCTGTCAAAGCCAGTTCCTTAGCCGCTTAGG,45000
17,AGCCAGCGCGGCGAGGTGGATCGTGATTCCGGCCCG,281
18,CATCCCAAACGCCTTTCCGGAGCCACGAAGACAGGA,1050
19,CATGTGCTTCCGGCTTGATCTGTCGTTATTCTGGTT,13400
20,CTTGCGCTCACAGAGCCCGCCACTTCCGCCTCACAG,3690
